These results are taken from the supplement of paper PMC12889115.

The list shows a part of the results. Many values rest on one well or one pass, so single values are uncertain.
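Further: polymyxin B level opens the outer membrane while sparing the inner membrane, with novobiocin wells as reference growth inhibitor.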

This experiment concerns Salmonella enterica serovar Typhimurium SL1344. The experiment can be described thus: bacterial growth OD600 after 18 h in MHB with 0.5 µg/mL polymyxin B; higher = more bacterial growth (less inhibition). The conditions noted are these: 25 µM; polymyxin B 0.5 µg/mL; system: broth. As for the experimental part: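 Secondary screen of the 553 primary hits at 25 µM. (i) S. Typhimurium SL1344 grown in Mueller-Hinton broth with 0.5 µg/mL polymyxin B, OD600 read after 18 h. (ii) SAFIRE assay: RAW 264.7 macrophages infected with S. Typhimurium sifB::gfp (MOI 30); compound added 2 h post-infection; cells fixed at 18 h; GFP-positive pixel fraction per macrophage imaged by confocal microscopy and expressed as % of DMSO control.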
`CCOC(=O)CN(C)c1ccc(-c2nc(-c3cccc(OC)c3OC)no2)cn1`: the “bacterial growth OD600” value came out at 0.489.
On to `COc1cc(C)ccc1OCc1nc(C(=O)N2CC[C@@H]3CCCC[C@H]3C2)co1`, for which the “bacterial growth OD600” value was found to be 0.006.
The value for `Cc1c(C(=O)N(C)C(C)C)sc2ncnc(NC[C@H]3C[C@@H]4C=C[C@H]3C4)c12` was 0.511; that for `COCCN1C(=O)CC(CC(=O)N(C)CCC23CC4CC(CC(C4)C2)C3)(c2ccccc2OC)C1=O` (centres undefined) was -0.012.
For `COCCN1C(=O)CC(CC(=O)N(Cc2ccccc2)CC2CC2)(c2ccccc2OC)C1=O` (centres undefined) the value was 0.002; for `CCCCn1c(CN2CCCC(COC)C2)cnc1S(=O)(=O)CCCC(C)C` (centres undefined), 0.002; for `CN(C)Cc1ccc(C(=O)N2CCCC(CCc3cccc(F)c3)C2)o1` (centres undefined), 0.003.
On to `CC1CN(Cc2ccc3ncccc3c2)Cc2cc(Cl)ccc2O1` (centres undefined), for which the “bacterial growth OD600” value is 0.001.
In the case of `O=C(Nc1ccc(-c2cscn2)cc1)C1CCCN1Cc1ccccc1` (centres undefined), the “bacterial growth OD600” value stood at 0.048.
For `COc1cccc(OC)c1-c1cnnc(NCc2cccc(C(F)(F)F)c2)n1` the value was -0.008.
For `Cc1ccc2c(c1)CN(CC(=O)NCc1cn3c(C)cccc3n1)CC(c1ccsc1)O2` (centres undefined) the value was -0.003; for `CN(C(=O)CC1(c2ccc(-c3ccccc3)cc2)CC(=O)N(C2CC2)C1=O)C1CCOCC1` (centres undefined), 0.003.
The value for `CCOC(=O)C1(Cc2ccc(F)cc2)CCCN(C(=O)c2cc(C3CC3)n[nH]2)C1` (centres undefined) was 0.006.
Consider `CN(Cc1ccc(C(F)(F)F)cc1)C(=O)c1cn(Cc2ccc(F)cc2)nn1`, for which the “bacterial growth OD600” value was found to be 0.002.
